Results: PMC9911399, “Two distinct binding modes provide the RNA-binding protein RbFox with extraordinary sequence specificity”
Where a chain is given by its changes, count along the chain named. The list shows a part of the results.

T1: RBFOX1 RRM RbFoxmut (Fox-RRM*) (Homo sapiens, UniProt Q9NWB1 109-208, R118D;E147R;N151S;E152T)
T1 sequence: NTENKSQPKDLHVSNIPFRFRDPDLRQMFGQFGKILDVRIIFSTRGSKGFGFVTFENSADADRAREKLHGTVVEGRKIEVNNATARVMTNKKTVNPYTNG

B1: GUGAUCC (DNA:RNA)
RNA: GGGAGACCGGAAUUCAGAUUGUCCGUGAUCCUUAAAUCCCGUCGUAGCCACCA
DNA 1: CAATCTGAATTCCGGTCTCCC
DNA 2: TGGTGGCTACGACGGGATT
B2: AUACUGU (DNA:RNA)
RNA: B1 RNA with G25A, G27A, A28C, C30G, C31U
DNA 1: CAATCTGAATTCCGGTCTCCC
DNA 2: TGGTGGCTACGACGGGATT
B3: CGACCAG (DNA:RNA)
RNA: GGGAGACCGGAAUUCAGAUUGUCCCGACCAGUUAAAUCCCGUCGUAGCCACCA
DNA 1: CAATCTGAATTCCGGTCTCCC
DNA 2: TGGTGGCTACGACGGGATT
B4: AUAGCGA (DNA:RNA)
RNA: B3 RNA with C25A, G26U, C28G, A30G, G31A
DNA 1: CAATCTGAATTCCGGTCTCCC
DNA 2: TGGTGGCTACGACGGGATT
B5: UUGCCCG (DNA:RNA)
RNA: B3 RNA with C25U, G26U, A27G, A30C
DNA 1: CAATCTGAATTCCGGTCTCCC
DNA 2: TGGTGGCTACGACGGGATT
B6: AAUCGCU (DNA:RNA)
RNA: B3 RNA with C25A, G26A, A27U, C29G, A30C, G31U
DNA 1: CAATCTGAATTCCGGTCTCCC
DNA 2: TGGTGGCTACGACGGGATT
B7: UUGCAUC (DNA:RNA)
RNA: B1 RNA with G25U, A28C, U29A, C30U
DNA 1: CAATCTGAATTCCGGTCTCCC
DNA 2: TGGTGGCTACGACGGGATT
B8: UAUGUGA (DNA:RNA)
RNA: B1 RNA with G25U, U26A, G27U, A28G, C30G, C31A
DNA 1: CAATCTGAATTCCGGTCTCCC
DNA 2: TGGTGGCTACGACGGGATT
B9: GUGUUAA (DNA:RNA)
RNA: B1 RNA with A28U, C30A, C31A
DNA 1: CAATCTGAATTCCGGTCTCCC
DNA 2: TGGTGGCTACGACGGGATT
B10: CACCAGG (DNA:RNA)
RNA: B3 RNA with G26A, A27C, C29A, A30G
DNA 1: CAATCTGAATTCCGGTCTCCC
DNA 2: TGGTGGCTACGACGGGATT
B11: CAUGUGG (DNA:RNA)
RNA: B3 RNA with G26A, A27U, C28G, C29U, A30G
DNA 1: CAATCTGAATTCCGGTCTCCC
DNA 2: TGGTGGCTACGACGGGATT
B12: GAGAUAA (DNA:RNA)
RNA: B1 RNA with U26A, C30A, C31A
DNA 1: CAATCTGAATTCCGGTCTCCC
DNA 2: TGGTGGCTACGACGGGATT
B13: GGUUUUC (DNA:RNA)
RNA: B1 RNA with U26G, G27U, A28U, C30U
DNA 1: CAATCTGAATTCCGGTCTCCC
DNA 2: TGGTGGCTACGACGGGATT
B14: CCGACUU (DNA:RNA)
RNA: B3 RNA with G26C, A27G, C28A, A30U, G31U
DNA 1: CAATCTGAATTCCGGTCTCCC
DNA 2: TGGTGGCTACGACGGGATT
B15: UCUGAAG (DNA:RNA)
RNA: B3 RNA with C25U, G26C, A27U, C28G, C29A
DNA 1: CAATCTGAATTCCGGTCTCCC
DNA 2: TGGTGGCTACGACGGGATT
B16: CAAAUGG (DNA:RNA)
RNA: B3 RNA with G26A, C28A, C29U, A30G
DNA 1: CAATCTGAATTCCGGTCTCCC
DNA 2: TGGTGGCTACGACGGGATT
B17: GACCACC (DNA:RNA)
RNA: B1 RNA with U26A, G27C, A28C, U29A
DNA 1: CAATCTGAATTCCGGTCTCCC
DNA 2: TGGTGGCTACGACGGGATT
B18: CCAGGGA (DNA:RNA)
RNA: B3 RNA with G26C, C28G, C29G, A30G, G31A
DNA 1: CAATCTGAATTCCGGTCTCCC
DNA 2: TGGTGGCTACGACGGGATT
B19: UCUGUUG (DNA:RNA)
RNA: B3 RNA with C25U, G26C, A27U, C28G, C29U, A30U
DNA 1: CAATCTGAATTCCGGTCTCCC
DNA 2: TGGTGGCTACGACGGGATT
B20: UCGCAAA (DNA:RNA)
RNA: B3 RNA with C25U, G26C, A27G, C29A, G31A
DNA 1: CAATCTGAATTCCGGTCTCCC
DNA 2: TGGTGGCTACGACGGGATT
B21: CCGAUUC (DNA:RNA)
RNA: B1 RNA with G25C, U26C, C30U
DNA 1: CAATCTGAATTCCGGTCTCCC
DNA 2: TGGTGGCTACGACGGGATT
B22: GGCUUCC (DNA:RNA)
RNA: B1 RNA with U26G, G27C, A28U
DNA 1: CAATCTGAATTCCGGTCTCCC
DNA 2: TGGTGGCTACGACGGGATT
B23: AGGUCUG (DNA:RNA)
RNA: B3 RNA with C25A, A27G, C28U, A30U
DNA 1: CAATCTGAATTCCGGTCTCCC
DNA 2: TGGTGGCTACGACGGGATT
B24: UCCGUAA (DNA:RNA)
RNA: B3 RNA with C25U, G26C, A27C, C28G, C29U, G31A
DNA 1: CAATCTGAATTCCGGTCTCCC
DNA 2: TGGTGGCTACGACGGGATT
B25: UGGACCG (DNA:RNA)
RNA: B3 RNA with C25U, A27G, C28A, A30C
DNA 1: CAATCTGAATTCCGGTCTCCC
DNA 2: TGGTGGCTACGACGGGATT
B26: CUUUAGA (DNA:RNA)
RNA: B3 RNA with G26U, A27U, C28U, C29A, A30G, G31A
DNA 1: CAATCTGAATTCCGGTCTCCC
DNA 2: TGGTGGCTACGACGGGATT
B27: CGACCAA (DNA:RNA)
RNA: B3 RNA with G31A
DNA 1: CAATCTGAATTCCGGTCTCCC
DNA 2: TGGTGGCTACGACGGGATT
B28: CUAACUG (DNA:RNA)
RNA: B3 RNA with G26U, C28A, A30U
DNA 1: CAATCTGAATTCCGGTCTCCC
DNA 2: TGGTGGCTACGACGGGATT
B29: GGGAAUA (DNA:RNA)
RNA: B1 RNA with U26G, U29A, C30U, C31A
DNA 1: CAATCTGAATTCCGGTCTCCC
DNA 2: TGGTGGCTACGACGGGATT
B30: CUUUAUC (DNA:RNA)
RNA: B1 RNA with G25C, G27U, A28U, U29A, C30U
DNA 1: CAATCTGAATTCCGGTCTCCC
DNA 2: TGGTGGCTACGACGGGATT
B31: CUGACGC (DNA:RNA)
RNA: B1 RNA with G25C, U29C, C30G
DNA 1: CAATCTGAATTCCGGTCTCCC
DNA 2: TGGTGGCTACGACGGGATT

What follows are binders tested against T1, RBFOX1 RRM RbFoxmut (Fox-RRM*) (assay: EMSA; HiTS-Eq, 1 nM pool, 10 min; buffer printed only for the single-RNA assays: 10 mM Tris pH 7.5, 150 mM NaCl, 3.4 mM EDTA, 0.001% NP-40, 30 C). Conditions: tags: His6 N-terminal (pET28a); label: 5' 32P.
Outline: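 A pool of RNA with 7 randomized nucleotides, 5′-radiolabelled and with DNA-annealed flanks, was equilibrated at 1 nM for 10 min in 50 µL with purified RbFox RRM, wild type or mutant, across increasing protein concentrations. Free RNA was separated by 8% native PAGE, excised, reverse-transcribed, barcoded by PCR and sequenced. Relative association constants were obtained from read-count changes of each RNA species versus the control reaction and normalised to the cognate motif.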

Row | Binder | binding signal
1 | B1 | 0.11 KA relative to UGCAUGU
2 | B2 | 0.0933 KA relative to UGCAUGU
3 | B3 | 0.0893 KA relative to UGCAUGU
4 | B4 | 0.0797 KA relative to UGCAUGU
5 | B5 | 0.178 KA relative to UGCAUGU
6 | B6 | 0.0718 KA relative to UGCAUGU
7 | B7 | 0.432 KA relative to UGCAUGU
8 | B8 | 0.0932 KA relative to UGCAUGU
9 | B9 | 0.102 KA relative to UGCAUGU
10 | B10 | 0.0996 KA relative to UGCAUGU
11 | B11 | 0.06 KA relative to UGCAUGU
12 | B12 | 0.0764 KA relative to UGCAUGU
13 | B13 | 0.0911 KA relative to UGCAUGU
14 | B14 | 0.0477 KA relative to UGCAUGU
15 | B15 | 0.0776 KA relative to UGCAUGU
16 | B16 | 0.07 KA relative to UGCAUGU

Row | Binder | binding signal
17 | B17 | 0.0529 KA relative to UGCAUGU
18 | B18 | 0.0632 KA relative to UGCAUGU
19 | B19 | 0.115 KA relative to UGCAUGU
20 | B20 | 0.0916 KA relative to UGCAUGU
21 | B21 | 0.0456 KA relative to UGCAUGU
22 | B22 | 0.142 KA relative to UGCAUGU
23 | B23 | 0.187 KA relative to UGCAUGU
24 | B24 | 0.0724 KA relative to UGCAUGU
25 | B25 | 0.238 KA relative to UGCAUGU
26 | B26 | 0.133 KA relative to UGCAUGU
27 | B27 | 0.0878 KA relative to UGCAUGU
28 | B28 | 0.0781 KA relative to UGCAUGU
29 | B29 | 0.157 KA relative to UGCAUGU
30 | B30 | 0.0598 KA relative to UGCAUGU
31 | B31 | 0.071 KA relative to UGCAUGU
